Laboratory results from paper PMC4336329 (PLoS ONE, 2015).
Hit rate of the full screen: of about 310,000 compounds, about 14,000 (4.5%) showed an effect of 50% or more. The effect is printed as a negative number. The list shows a part of the results.

molecular target: human ether-à-go-go-related gene (hERG) potassium channel (human, UniProt Q12809); assay: primary screen, population patch clamp on CHO cells stably expressing hERG
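Also: peak tail current of the secondary pulse compared with the same well before compound.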

Chain of human ether-à-go-go-related gene (hERG) potassium channel (Q12809 whole entry, looked up): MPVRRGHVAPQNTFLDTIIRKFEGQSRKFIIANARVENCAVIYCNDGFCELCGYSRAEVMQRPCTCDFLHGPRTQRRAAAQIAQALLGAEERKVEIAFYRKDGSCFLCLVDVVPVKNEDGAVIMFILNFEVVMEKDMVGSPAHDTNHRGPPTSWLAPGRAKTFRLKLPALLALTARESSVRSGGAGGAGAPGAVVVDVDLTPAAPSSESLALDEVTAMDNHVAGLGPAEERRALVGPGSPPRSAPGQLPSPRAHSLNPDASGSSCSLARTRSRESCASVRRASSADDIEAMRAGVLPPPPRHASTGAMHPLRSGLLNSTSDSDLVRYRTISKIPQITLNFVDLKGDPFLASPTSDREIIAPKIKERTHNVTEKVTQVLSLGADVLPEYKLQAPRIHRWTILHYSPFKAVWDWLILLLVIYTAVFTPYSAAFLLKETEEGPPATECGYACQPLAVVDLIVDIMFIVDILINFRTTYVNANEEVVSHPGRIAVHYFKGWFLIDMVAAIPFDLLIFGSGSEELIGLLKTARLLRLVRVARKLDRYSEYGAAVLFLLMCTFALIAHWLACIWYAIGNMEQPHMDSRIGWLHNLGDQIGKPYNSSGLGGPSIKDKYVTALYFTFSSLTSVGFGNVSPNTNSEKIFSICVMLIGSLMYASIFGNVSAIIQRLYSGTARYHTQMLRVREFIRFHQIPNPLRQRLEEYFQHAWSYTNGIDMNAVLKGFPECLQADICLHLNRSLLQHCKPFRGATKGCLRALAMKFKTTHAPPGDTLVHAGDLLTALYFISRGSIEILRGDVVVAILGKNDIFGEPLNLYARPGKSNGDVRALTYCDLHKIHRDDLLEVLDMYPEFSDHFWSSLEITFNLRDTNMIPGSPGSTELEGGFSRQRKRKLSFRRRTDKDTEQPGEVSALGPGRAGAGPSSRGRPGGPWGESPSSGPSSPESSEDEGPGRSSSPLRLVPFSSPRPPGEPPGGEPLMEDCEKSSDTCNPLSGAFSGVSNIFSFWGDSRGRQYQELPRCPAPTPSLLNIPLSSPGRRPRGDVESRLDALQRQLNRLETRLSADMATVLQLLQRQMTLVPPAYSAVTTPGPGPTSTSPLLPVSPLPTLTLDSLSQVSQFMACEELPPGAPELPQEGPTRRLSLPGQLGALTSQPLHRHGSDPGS

SMILES | hERG current change (%, negative = inhibition) at 10uM [%]
CCN1CCN(Cc2ccc(NC(=O)c3ccc(C)c(NC(=O)N4CCNC4=O)c3)cc2C(F)(F)F)CC1 | 1.09
OCCc1c[nH]c2ccc(C(F)(F)F)cc12 | 6.01
CC(=O)N1CCc2cc(Br)cc(S(=O)(=O)NCc3ccccn3)c21 | 7.02
COc1ccc(Cl)cc1C(=O)NNC(=O)CSc1nnnn1C | 9.95
CC(NC(=O)COc1ccc(S(=O)(=O)N2CCOCC2)cc1)c1ccccc1 (stereo not drawn) | -4.63
C/C(=N\NC(=O)Cn1nc(C)cc1C)c1ccc([N+](=O)[O-])cc1 | -17.6
CCCCS/C(N)=N/N=C/c1ccccc1O | 14.4
COC(=O)/C(=C(/F)SCC(C)=O)C(F)(F)F | 5.79
O=C(CCC1CCCN(C(=O)c2cccs2)C1)N1CCN(c2ccccn2)CC1 (stereo not drawn) | -23.6
O=S(=O)(c1cc(C(F)(F)F)ccc1Cl)N1CCN(c2ccccn2)CC1 | -26.3
Cc1ccc(OCCCC(=O)N2CCN(S(=O)(=O)c3cccc(F)c3)CC2)cc1 | -9
Fc1ccccc1CN1CCCN(C(=S)Nc2cccc(Cl)c2)C1 | -22.8
COc1ccccc1N(CC1CO1)S(=O)(=O)c1ccccc1 (stereo not drawn) | -6.08
CCCNC(=O)COc1ccc(-c2nn(C)c(=O)c3ccccc23)cc1 | 4.95
Cc1ccc2nc(SCC(=O)NNC(=O)c3ccccc3)[nH]c2c1 | -4.55
CCCS(=O)(=O)N1CCCC(C(=O)NC(C)c2ccc3c(c2)OCCO3)C1 (stereo not drawn) | 9.55
Cc1ccc(-c2nnn(CC(=O)N3CCC(C)CC3)n2)o1 | 12.7
CCOC(=O)Cc1nnc(NC(=O)CSc2ccc(C)cc2)s1 | 12.6
CC1CCN(C(=O)C(=O)c2cn(CC(=O)N3CCCC3)c3ccccc23)CC1 | 22.2
CCOCCCNC(=O)C(NC(=O)c1ccc2c(c1)OCO2)c1ccccc1 (stereo not drawn) | 15
COc1ccc(CN2C(=O)C(C)Oc3ccccc32)cc1 (stereo not drawn) | -7.81
Cc1ccc(C(=O)N2CCN(c3ncnc4c(C)csc34)CC2)cc1 | -21.1
CCCC(C)C(=O)Nc1ccc(C(N)=O)cc1 (stereo not drawn) | 5.3

SMILES | hERG current change (%, negative = inhibition) at 10uM [%]
CCn1c2ccccc2c2cc(NC(=O)CSc3nnc(C4CC4)n3Cc3ccco3)ccc21 | 6.81
COc1ccc(C(=O)N/N=C(\C)c2ccc(NC(=O)Cc3ccccc3)cc2)c(OC)c1 | -2.17
O=[N+]([O-])C1=CC=C2C(=NC3(CCCCC3)N2O)C1=NCCO | -0.0914
COc1ccc(S(=O)(=O)N2CCN(CCC(=O)Nc3ccccc3F)CC2)cc1 | -0.0172
CCc1nccn1S(=O)(=O)c1ccc(OC)c(OC)c1 | 3.05
Cc1csc(NC(=O)c2ccc[nH]c2=O)n1 | 1.66
NC(=O)c1oc2ccc(Cl)cc2c1NC(=O)CN1CCOCC1 | -9.08
O=C(CCCOc1ccccc1)Nc1cccc(S(=O)(=O)N2CCCCCC2)c1 | -15.7
COCCN1Cc2cccc(C(=O)Nc3cccc(-c4nc5ccccc5[nH]4)c3)c2C1=O | -47.7
CCN(CC)c1ccc2cc(C(N)=O)c(=N)oc2c1 | -58.5
Br.C/C(Sc1nnc(Cc2ccccc2)o1)=C(/O)c1ccccc1 | -2.46
Cn1ccnc1SCC(=O)Nc1cccc(C(F)(F)F)c1 | -0.393
CSc1ccccc1-c1nc(-c2ccncc2)no1 | 14.1
CCC(Sc1nc(-c2ccccc2)c(C#N)c(=O)[nH]1)C(=O)Nc1cc(C)on1 (stereo not drawn) | 5.36
Cc1ccccc1NC(=O)Cc1nc(COC(=O)CCNS(=O)(=O)c2ccccc2)cs1 | -14.4
O=C(Oc1ccc2c(c1)OCC2=O)c1ccccc1 | 14.1
CCOC(=O)C(C)(C)Sc1nc2c(cnn2-c2ccc(Cl)cc2)c(=O)[nH]1 | -41.1
CCOc1ccc2c(c1)c1nnc(SCC(=O)NC3CC3)nc1n2C | -17.4
O=C(CC1CCCC1)N1CCN(S(=O)(=O)c2ccc(F)cc2)CC1 | -27.7
COc1cc(NC(=O)c2ccccc2)cc(OC)c1 | 3.8
Cl.OC(CN1C2=NCCCN2c2ccccc21)c1ccc(Br)cc1 (stereo not drawn) | -83.9
CC1Cc2nc(SCC(=O)N3CCOCC3)n(C)c(=O)c2S1 (stereo not drawn) | 8
Cn1c(C(=O)OCC(=O)NCc2cccs2)cc2sccc21 | 3.37

SMILES | hERG current change (%, negative = inhibition) at 10uM [%]
O=C(Nc1ccnn1C1CCN(Cc2ccc(Cl)cc2)CC1)C1CCCC1 | -63.6
COc1ccccc1NC(=O)C1=C(C)Nc2nnnn2C1c1cccc(C)c1 (stereo not drawn) | -2.36
COc1cc(/C=N/NC(=O)c2nonc2N)cc(OC)c1OC | 15.5
O=C(CN1CCCCC1)Nc1ccc(Br)cc1C(=O)c1ccccc1Cl | 8.71
CCn1c(SCC(=O)NNC(=O)c2ccco2)nnc1-c1ccco1 | 18.4
CC(C)C(=O)N1CCc2cc(-c3csc(N)n3)ccc21 | 5.2
CC(C)(C)OC(=O)N[C@@H](Cc1ccccc1)C(=O)NCC1CCC(C(=O)O)CC1 (stereo partly drawn) | 13.1
CCCNC(=O)C(Cc1ccccc1)NC(=O)c1ccc(C(F)(F)F)cc1 (stereo not drawn) | 9.48
S=C(Nc1ccccc1)Nc1nccs1 | 24.4
O=C(c1cccc(Cl)c1)N1CCC(=O)N(C(CO)Cc2ccccc2)CC1 (stereo not drawn) | 6.58
Cc1c(NC(=O)c2ccccc2NS(=O)(=O)c2ccc(F)cc2)c(=O)n(-c2ccccc2)n1C | 7.8
O=C(COc1ccc(Cl)cc1)NCCNC(=O)c1ccccn1 | -7.45
C/C(=N\Nc1nc2c(s1)CCCC2)c1ccccc1.Cl | -17.7
OCC[C@H]1C[C@H](O)[C@@H](O)[C@]2(CCCc3ccccc3O2)O1 | 0.151
Cl.OC(COc1ccc(Cl)cc1)CN1C2=NCCCN2c2ccccc21 (stereo not drawn) | -76.3
Cc1n(Cc2ccccc2)c2ccccc2[n+]1Cc1ccccc1.[Cl-] | -1.19
Cc1ccc(CSC2=Nc3sccc3C3=NC(=O)CN23)cc1 | -19.1
Cc1ccc(C(=O)N2CCN(c3ccc(N4CCOCC4)nn3)CC2)cc1 | -18.1
CC(C)NC(=O)c1ccc(NC(=O)CC2SC(N3CCCC3)=NC2=O)cc1 (stereo not drawn) | 2.2
CCOC(=O)c1ccccc1NC(=O)CSc1nnnn1C | -11.3
CC(C)(C)c1ccc(OCCOCCn2cnc3ccccc3c2=O)cc1 | -36.8
Cc1cc2nnc(SCC(=O)N3C(C)CCCC3C)n2c(N)n1 (stereo not drawn) | 4.24
COc1ccc(C(c2nnnn2Cc2ccccc2)N2CCN(C(=O)c3ccco3)CC2)cc1 (stereo not drawn) | -60.6

SMILES | hERG current change (%, negative = inhibition) at 10uM [%]
CC(C)Oc1ccc(C(=O)NCCNC(=O)c2ccco2)cc1 | -13.2
Nc1nnc(N)c2ccccc12 | 41.6
COc1ccc(NC(=O)Cn2nnc(-c3ccc(CN4CCOCC4)cc3)n2)c(OC)c1 | -13.7
Cl.O=C(COc1ccc(Cl)cc1)N1CCN(Cc2ccc3c(c2)OCO3)CC1 | -48.2
COc1ccc(CCNC(=O)C(=O)NCC2OCCN2S(=O)(=O)c2cccs2)cc1 (stereo not drawn) | -5.53
CC(C)CCNC(=O)CSc1nc2ccsc2c(=O)n1NC(=O)c1ccccc1 | -13.4
O=C(NCC(c1ccco1)N1CCCC1)c1cn(Cc2ccccc2)nc1-c1ccccc1 (stereo not drawn) | -58.5
CC(C)CNC(=O)CC1Nc2ccccc2NC1=O (stereo not drawn) | 16.9
Cc1cccc(C)c1N1CCN(c2ccc3nnc(C(F)(F)F)n3n2)CC1 | 9.9
CCCS(=O)(=O)c1ncc(Cl)c(C(=O)Nc2ccc(S(=O)(=O)Nc3ncccn3)cc2)n1 | -11.8
COc1ccc(C(=O)NCc2nc3ccccc3[nH]2)cc1OC | 1.96
COc1ccccc1-c1cc(C(=O)NCCc2ccccc2)no1 | 5.18
O=c1cc(N2CCCCC2)c(-c2ccccc2)nn1Cc1c(Cl)cccc1Cl | -7.39
COc1ccc(/C=N/n2c(-c3cc(C)[nH]n3)n[nH]c2=S)cc1 | 14.5
CCC1S/C(=N/N=C/c2ccco2)NC1=O (stereo not drawn) | -1.62
O=C(CCN1C(=O)C2C3CCC(C3)C2C1=O)OCC(=O)c1ccccc1 (stereo not drawn) | 9.98
Cc1cc(O)ccc1NC1=CC(=O)CC(C)(C)C1 | 1.89
COc1ccc(C2/C(=C(/O)c3ccc(C)cc3)C(=O)C(=O)N2C)c(OC)c1 (stereo not drawn) | 21.2
CCOC(=O)c1nnn(-c2nonc2-n2cccc2)c1C | -3.31
NS(=O)(=O)c1ccc(Sc2ccccn2)c([N+](=O)[O-])c1 | 9.58
COc1cccc(C(=O)N2CCCc3ccccc32)c1 | -13.8
